# Measurements from PubChem BioAssay AID624296 (National Center for Advancing Translational Sciences (NCATS), 2012).
# Out of some 350,000 compounds screened, about 9,900 (2.8%) were called active. This list was built around the results that the source calls inconclusive (neither active nor inactive); the mix of calls is not that of the screen. The call rests on the fitted dose curve; in most records, active means well fitted activation curve with a large enough effect; inconclusive means small, poorly fitted or top-dose-only effect; inactive means no such curve, though single readings can be large or run the other way. Potencies of inconclusive entries are left out as doubtful fits.
# Test: A quantitative high throughput screen for small molecules that induce DNA re-replication in MCF 10a normal breast cells. Further: nearly all actives have a fitted effect of over 50% in size.
# Details: MCF 10A DNA re-replication, Hoechst nuclear intensity, 48 h; series mostly up to 46.1 µM
# Potency means the concentration at half of the fitted maximal effect; tags describe the fitted curve by direction and shape.
row,SMILES,Potency
1,O=C(Nc1nc(-c2ccccn2)cs1)c1cc(S(=O)(=O)N2CCOCC2)ccc1F,"inconclusive [activator, partial curve, poor fit]"
2,O=C(Nc1cc(C(F)(F)F)ccc1Cl)C(Sc1n[nH]c(=O)[nH]c1=O)c1ccccc1 (configuration not stated),"inconclusive [activator, single point]"
3,CCN(CC)CCn1c(SCC(=O)Nc2cccc(OC)c2)nc2c(sc3ccccc32)c1=O,"inconclusive [activator, single point]"
4,O=C(COc1ccc2c3c(c(=O)oc2c1)CCCC3)NCC(O)c1ccccc1 (configuration not stated),"inconclusive [activator, partial curve, poor fit]"
5,O=C(NNC(=S)NC(=O)c1sc2ccccc2c1Cl)c1ccc(Cl)cc1,"inconclusive [activator, partial curve, poor fit]"
6,Cc1cc(NC(=O)C2CCCC2)nc2c1c(=O)oc1ccccc12,inactive
7,COCc1cc(C)nc2oc(C(=O)c3ccccc3)c(N)c12,"inconclusive [activator, partial curve, poor fit]"
8,O=C(CSc1ccc2ccccc2c1)Nc1ccc(S(=O)(=O)Nc2nccs2)cc1,"inconclusive [activator, partial curve, poor fit]"
9,O=C(CSc1c2c(nc3cc(Cl)ccc13)CCCC2)NCc1ccco1,"inconclusive [activator, single point]"
10,CN(C(=O)c1ccccc1C(=O)OCC(=O)Nc1ccccc1)c1ccccc1,inactive
11,CCc1nc(SCC(=O)NCc2ccco2)c2c3c(sc2n1)CCCC3,"inconclusive [activator, single point]"
12,Cc1cc2nc3n(c2cc1C)CC1CC(C(=O)NCCc2cccs2)N(C)C31 (configuration not stated),"inconclusive [activator, full curve, poor fit]"
13,CCc1nc2ccc(C(=O)N3CCN(c4ccc(Cl)cc4)CC3)cc2nc1CC,"inconclusive [activator, single point]"
14,Cc1cc(C)c2c(c1)/C(=N/Nc1ccc(S(N)(=O)=O)cc1[N+](=O)[O-])CCC2,active: 2.31 µM
15,Cc1cccc(NC(=O)CSc2nc(=O)n3ccccc3n2)c1C,inactive
16,CCOC(=O)C1=C(NC(=S)NC(=O)c2ccccc2)c2ccccc2CC1(C)C,active: 4.11 µM
17,Oc1ccccc1C=NC1=NN(c2cccc(C(F)(F)F)c2)CC1,inactive
18,COc1cc(Nc2ccccn2)cc(C(=O)Nc2cccc(C(F)(F)F)c2)c1,"inconclusive [activator, single point]"
19,COc1ccc2nccc(C(N)=O)c2c1,inactive
20,Cc1sc2ncnc(N3CCC(C(=O)N(CC(C)C)c4nc5ccccc5s4)CC3)c2c1C,"inconclusive [activator, partial curve, poor fit]"
21,O=C(COc1ccc(-c2ccccc2)cc1)NN=C1CCCC1,"inconclusive [activator, single point]"
22,C/C(=N\Nc1cc(N2CCOCC2)ncn1)c1cccc([N+](=O)[O-])c1,"inconclusive [activator, single point]"
23,Cc1cc(C)c(C)c(OCCOCCN2CCN(C)CC2)c1,active: 20.6 µM

row,SMILES,Potency
1,NC(=O)C1(Nc2ccccc2Cl)CCCC1,"inconclusive [activator, single point]"
2,O=C1NC(Cc2c[nH]c3ccccc23)C(=O)N1Cc1cccc2ccccc12 (configuration not stated),inactive
3,CNC(=O)c1c(NC(=O)c2cccc(C)c2)sc2c1CCC2,inactive
4,Cc1ccc(NC(=O)c2ncn(CCCN3CCN(Cc4cccc5ccccc45)CC3)n2)cc1C,"inconclusive [activator, single point]"
5,C#CCOCCOCCOCCNc1nc(N2CCN(C(=O)[C@H]([C@@H](C)CC)n3cc([C@@H](N)CC(C)C)nn3)CC2)nc(N2CCN(C(=O)[C@H](Cc3cc4ccccc4[nH]3)n3cc([C@@H](N)Cc4ccc(O)cc4)nn3)CC2)n1,"inconclusive [activator, single point]"
6,CCOc1cc(CNCc2ccccc2)ccc1OCc1ccc(Cl)cc1,"inconclusive [activator, partial curve, poor fit]"
7,O=C(OCC(=O)N1CCc2ccccc2C1)c1ccc(Cl)c([N+](=O)[O-])c1,inactive
8,O=C(CC1NC(=O)NC1=O)Nc1cccc2ccccc12 (configuration not stated),"inconclusive [activator, full curve, poor fit]"
9,CCOc1ccc(C/C(O)=C2\C(=O)CC(C)(C)CC2=NCC(=O)O)cc1OCC,inactive
10,Oc1ccc(C=NNc2nc3ccccc3s2)c(O)c1,"inconclusive [activator, single point]"
11,Cc1ccc(C)c(C(=O)Nc2cc(C)nn2-c2nc(C)cc(C)n2)c1,"inconclusive [activator, partial curve, poor fit]"
12,O=C(Cn1cnc2scc(-c3ccccc3)c2c1=O)NCc1ccco1,inactive
13,O=C(c1ccc(Cl)cc1)c1cc(-c2ccccn2)c(N2CCOCC2)s1,"inconclusive [activator, single point]"
14,CCOc1ccc(S(=O)(=O)NCc2cccnc2)cc1NC(=O)c1ccccc1F,active: 13 µM
15,CCc1nnc(NC(=O)CN2CCN(Cc3ccccc3C)CC2)s1,inactive
16,O=C1CCC(C(=O)Nc2cc(C(F)(F)F)ccc2-n2cncn2)=NN1,inactive
17,COc1ccccc1NC(=S)NNC(=O)c1ccc(Cl)cc1Cl,"inconclusive [activator, partial curve, poor fit]"
18,C=CCOC(=O)C1=C(C)NC(=O)NC1c1ccc(N(C)C)cc1 (configuration not stated),"inconclusive [activator, partial curve, poor fit]"
19,COc1ccc(N2C(=O)NC3CC2(C)Oc2ccc(Cl)cc23)cc1OC (configuration not stated),"inconclusive [activator, single point]"
20,CSCCC(NC(=O)COc1ccccc1)C(=O)N(C)Cc1cccc(F)c1 (configuration not stated),"inconclusive [activator, single point]"
21,C=CCn1c(SCC(=O)Nc2cc(C)on2)nc2sc3c(c2c1=O)CCCC3,inactive
22,CCOC(=O)CNC(=O)c1ccc(Cl)s1,"inconclusive [activator, single point]"
23,COC(=O)C1=C(C(=O)OC)C(C(=O)OC)C(C(=O)OC)C(C(=O)OC)(C(=O)OC)C(C(=O)OC)=C1C(=O)OC (configuration not stated),"inconclusive [activator, single point]"

row,SMILES,Potency
1,O=C(CNC1CCCCC1)NCC1(c2ccccc2)CCCC1,"inconclusive [activator, single point]"
2,CCc1cccc(N=c2c([N+](=O)[O-])nn(-c3ccc(Cl)cc3)n2O)c1,"inconclusive [activator, full curve]"
3,O=C(Nc1nc(-c2ccc(F)cc2)cs1)C1CCN(C(=O)c2ccc(F)cc2)CC1,"inconclusive [activator, single point]"
4,O=C(c1ccc(OC2CCN(Cc3cccc(F)c3)CC2)cc1)N1CCCCC1,"inconclusive [activator, partial curve, poor fit]"
5,O=C(C1CCC(CNS(=O)(=O)c2cccs2)CC1)N1CCN(c2ccc(F)cc2)CC1 (configuration not stated),active: 16.4 µM
6,CCOC(=O)c1c(NC(=S)NC(C)=O)sc(C)c1C,inactive
7,CCc1cc(=O)oc2cc(OCC(=O)N3CCC(C(N)=O)CC3)ccc12,"inconclusive [activator, full curve, poor fit]"
8,Cc1ccc2nc(Cl)c(/C=N/NC(=O)c3ccccc3O)cc2c1,"inconclusive [activator, single point]"
9,COc1ccc(C2CC(c3ccc(Cl)cc3)=NN2c2ccc(S(N)(=O)=O)cc2)cc1 (configuration not stated),"inconclusive [activator, partial curve, poor fit]"
10,COCCn1c(SCC(=O)NC2CCCC2)nc2c(c1=O)SCC2,inactive
11,Cc1cc(C(=O)OCC(=O)Nc2cccc(S(=O)(=O)N3CCOCC3)c2)c(C)o1,"inconclusive [activator, single point]"
12,CC(C)(C)C1C/C(=C/c2ccccn2)C(=O)/C(=C/c2ccccn2)C1 (configuration not stated),"inconclusive [activator, partial curve, poor fit]"
13,Clc1cccc(Cl)c1CON/C=N/c1ncnc2sccc12,"inconclusive [activator, partial curve, poor fit]"
14,COc1ccc(CCNC(=O)CC(=O)N/N=C/c2ccc(Br)cc2)cc1OC,"inconclusive [activator, single point]"
15,Fc1ccc2nncc(SCc3ccccc3Cl)c2c1,active: 18.4 µM
16,COc1ccc(C(=O)c2ccc(N3CCOCC3)cc2)c(OC)c1,inactive
17,COc1ccc2nc(NC3=NCCC3)sc2c1,"inconclusive [activator, partial curve, poor fit]"
18,Cc1cc(/C=N/NC(N)=S)c(C)n1-c1ccc(Cl)c(Cl)c1,active: 25.9 µM
19,O=C(COC(=O)c1cnccn1)c1ccc(C2CCCCC2)cc1,"inconclusive [activator, single point]"
20,S=C1NC(c2cccs2)=CC(c2ccc(Br)cc2)N1 (configuration not stated),"inconclusive [activator, partial curve, poor fit]"
21,CC1C(=O)C(C)C(c2cc(Br)ccc2O)NC1c1cc(Br)ccc1O (configuration not stated),active: 23.1 µM
